Test results reported in the RNAGym collection of RNA variant scans (doi:10.1073/pnas.2313332121).
This sample is rich in variants without activity.

B1: TPR 5TU (parent)
chain: GGAUCUUCUCGAUCUAACAAAAAAGACAAAUCUGCCACAAAGCUUGAGAGCAUCUUCGGAUGCAGAGGCGGCAGCCUUCGGUGGCGCGAUAGCGCCAACGUUCUCAACUAUGACACGCAAAACGCGUGCUCCGUUGAAUGGAGUUUAUCAUG

Variants of: B1
Assay: polymerase ribozyme fitness, log enrichment relative to wild type (log ratio); higher = more active; in vitro selection for triplet polymerase activity
Procedure, shortened: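 PCR was used to build mutant libraries for each subunit of a heterodimeric triplet polymerase ribozyme, which were then transcribed. A single in vitro selection round, in triplicate, used a frozen incubation at −7 °C and recovered extended constructs by gel excision, streptavidin beads and RT-PCR. Fitness is the logarithm of genotype enrichment relative to wild-type enrichment, averaged over replicates with inverse-variance weights. The logarithm is base 2, and after Illumina sequencing only genotypes with ≥10 input reads and ≥1 read per output were kept.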

A12G C14U A21C A23C G62C G83U C99U A106G C149U and A12G C14U A19G A21U A28G G65C G84C G124U G143C U145C cannot be ordered by “polymerase ribozyme fitness (log ratio)” value: no more than -4.2 for the first, no more than -4.2 for the second.

U13A A17U C54U C75G C87G U104C A113U and A12U U45A C87U cannot be ordered by “polymerase ribozyme fitness (log ratio)” value: no more than -4.2 for the first, no more than -4.2 for the second.

Compared with A12G C63U G83C C95U U109A, A12G C18U G83U A89G C96U is higher in “polymerase ribozyme fitness (log ratio)” value: -2.16 for the first, -1.73 for the second.

A12U C18U U44C G59A G140C G141C C149G and A12U C93U A97U C103U C105U G133U cannot be ordered by “polymerase ribozyme fitness (log ratio)” value: no more than -4.2 for the first, no more than -4.2 for the second.

First: A12U U82C G94C C108A A110G A113G G140U
Second: A12G U33C A73G U130G
The “polymerase ribozyme fitness (log ratio)” value of the first is lower: no more than -4.2 for the first, -3.56 for the second.

First: A12U C96U
Second: A12G A41C U44A A47C C85U A138C A142U U146A
The “polymerase ribozyme fitness (log ratio)” value of the first is higher: -0.566 for the first, no more than -4.2 for the second.

Going from A12U C93A to A12U C63A A89C C95G C114U C118U, the “polymerase ribozyme fitness (log ratio)” value falls from -1.26 to no more than -4.2.

A12U U15G C57A G62U G70C A89C C93A C123U G141A U144C and A12U A23G U56A C85G G117C cannot be ordered by “polymerase ribozyme fitness (log ratio)” value: no more than -4.2 for the first, no more than -4.2 for the second.

A12G G34U U55A G59U C96G G126A and A12C U13A U31G G48A G92C cannot be ordered by “polymerase ribozyme fitness (log ratio)” value: no more than -4.2 for the first, no more than -4.2 for the second.

A12G C27G A97G C125U U146A and A12U A30C C87G C96U A106C C116G U130G G136C cannot be ordered by “polymerase ribozyme fitness (log ratio)” value: no more than -4.2 for the first, no more than -4.2 for the second.

A12G A29G U55A C85U C96U C105U and A12G A37C C75A C103G cannot be ordered by “polymerase ribozyme fitness (log ratio)” value: no more than -4.2 for the first, no more than -4.2 for the second.

A12G A17C U33A U55G C57G C87A G94A G128U and A12U C14U A28G A41C A49G C51U A73C C93G U101G cannot be ordered by “polymerase ribozyme fitness (log ratio)” value: no more than -4.2 for the first, no more than -4.2 for the second.

Compared with A12U C14G C27A G67C C87U A137C G152C, A12U A23U U45C A97G A98U C131G C132U is higher in “polymerase ribozyme fitness (log ratio)” value: no more than -4.2 for the first, -4.12 for the second.

A12G A26C C43G C87U U134G and U13A A19C A29G A52C A115G G140U cannot be ordered by “polymerase ribozyme fitness (log ratio)” value: no more than -4.2 for the first, no more than -4.2 for the second.

A12U U44G C76G C87A U134A and A12G G92C A107G G133U cannot be ordered by “polymerase ribozyme fitness (log ratio)” value: no more than -4.2 for the first, no more than -4.2 for the second.

A12U C14U A17U G59A C93U A122U G143C and A12G A49C U53G U135A cannot be ordered by “polymerase ribozyme fitness (log ratio)” value: no more than -4.2 for the first, no more than -4.2 for the second.

A12G G25A C87G C116A U148G and A12G A40U G88C U104A cannot be ordered by “polymerase ribozyme fitness (log ratio)” value: no more than -4.2 for the first, no more than -4.2 for the second.

A12U C27G G34C G86C G140U G141A and A12U A28C G50C C57A C116U cannot be ordered by “polymerase ribozyme fitness (log ratio)” value: no more than -4.2 for the first, no more than -4.2 for the second.

U13A A20C A30C A49U C72U A91U and A12G U44A U45G A49C G50C A52G U53A C57U G84U G133U U139A cannot be ordered by “polymerase ribozyme fitness (log ratio)” value: no more than -4.2 for the first, no more than -4.2 for the second.

First: A12U C118U A119C G136A G143C
Second: A12U C35G C36G U55G G86U
The “polymerase ribozyme fitness (log ratio)” value of the first is higher: -3.19 for the first, no more than -4.2 for the second.

A12G C87A G88C C96U and A12U A17U G50A U61A cannot be ordered by “polymerase ribozyme fitness (log ratio)” value: no more than -4.2 for the first, no more than -4.2 for the second.
